PubChem BioAssay AID1645887 (National Center for Advancing Translational Sciences (NCATS), 2021)
Values joined by “and” are separate entries in the source; they are usually repeats but may differ in a detail not shown here. Identical values can stand only once. The whole screen tested about 16,000 compounds, of which about 40 (0.2%) were called active. Another 1% or so got no clear call; they are omitted. The call rests on the fitted dose curve; in most records, active means well fitted activation curve with a large enough effect; inconclusive means small, poorly fitted or top-dose-only effect, or another doubt; inactive means no such curve, though single readings can be large or run the other way. This is one part of the list.

Each compound was assayed against Rap guanine nucleotide exchange factor 4 (Homo sapiens) (UniProt Q8WZA2) (assay: Validation qHTS for agonist of cAMP-regulated guanine nucleotide exchange factor 4 (EPAC2)). Conditions: EPAC2 Rap1B BODIPY-GDP exchange, fluorescence; activation: active compounds read high.
Method in brief: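 Fluorescent exchange assay: 100 nM EPAC2 with 250 nM RAP1B-BODIPY-GDP and 50 uM GDP; compound added, 5 min at room temperature, then read (ex 480/em 540 nm) every 5 min for 30 min. Normalized to 6.5 mM cAMP agonist control.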
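Further: exchange makes BODIPY-GDP fluorescence drop when released from Rap1B; series mostly up to about 150 µM.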
On the % scale 0 is the no-effect control and ±100 the full control effect.

UniProt Q8WZA2, sequence (Q8WZA2 whole entry, looked up): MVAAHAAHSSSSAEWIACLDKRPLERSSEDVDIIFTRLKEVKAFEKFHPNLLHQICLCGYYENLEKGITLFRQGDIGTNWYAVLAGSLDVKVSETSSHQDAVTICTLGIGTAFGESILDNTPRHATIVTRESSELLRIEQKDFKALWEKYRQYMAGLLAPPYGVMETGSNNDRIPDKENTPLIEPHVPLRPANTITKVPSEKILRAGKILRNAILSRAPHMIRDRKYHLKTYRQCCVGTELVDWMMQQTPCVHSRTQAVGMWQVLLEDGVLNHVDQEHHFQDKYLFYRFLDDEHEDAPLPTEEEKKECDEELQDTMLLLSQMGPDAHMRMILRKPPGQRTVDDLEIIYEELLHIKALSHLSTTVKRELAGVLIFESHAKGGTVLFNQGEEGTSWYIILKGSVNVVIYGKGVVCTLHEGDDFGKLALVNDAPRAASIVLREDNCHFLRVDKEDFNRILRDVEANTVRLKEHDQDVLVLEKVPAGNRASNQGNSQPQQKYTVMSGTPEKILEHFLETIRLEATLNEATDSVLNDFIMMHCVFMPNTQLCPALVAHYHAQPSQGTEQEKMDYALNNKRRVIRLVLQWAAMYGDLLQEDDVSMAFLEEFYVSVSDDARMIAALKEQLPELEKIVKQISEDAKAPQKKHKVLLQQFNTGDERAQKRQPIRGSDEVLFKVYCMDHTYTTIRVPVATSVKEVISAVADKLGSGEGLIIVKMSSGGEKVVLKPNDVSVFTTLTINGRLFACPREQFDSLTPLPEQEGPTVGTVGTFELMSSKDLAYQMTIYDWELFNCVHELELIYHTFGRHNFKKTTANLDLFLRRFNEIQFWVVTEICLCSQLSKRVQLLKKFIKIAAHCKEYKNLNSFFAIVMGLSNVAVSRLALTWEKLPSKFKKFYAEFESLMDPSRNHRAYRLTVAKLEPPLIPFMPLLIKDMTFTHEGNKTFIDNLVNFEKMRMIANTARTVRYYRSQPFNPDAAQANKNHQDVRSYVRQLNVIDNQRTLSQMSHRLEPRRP

activation, inactive:
N#CCCn1c(=O)c(CCc2ccccc2)nc2cnc(N3CCOCC3)nc21 -17.5%
Nc1nc2[nH]cc(CCc3ccc(C(=O)N[C@@H](CCC(=O)O)C(=O)O)cc3)c2c(=O)[nH]1 -11.3%
O=C(c1cnn2cccnc12)N1CCOc2ccc(C(O)C(c3ccccc3)c3ccccc3)cc2C1 (centres undefined) -17.2%
CCCCCCCCCCCCCCCCOCC(COP(=O)([O-])OCC[N+](C)(C)C)OC (centres undefined) -6.27%
O=C(c1cccc(F)c1)N1CCC2(CCCN(c3ncccn3)C2)CC1 3.96%
O=C(OCCOCCO)c1ccccc1Nc1cccc(C(F)(F)F)c1 -19.4%
Cc1ncc2c(c1CNC(=O)c1ccc3c(c1)OCO3)CCN(C(=O)c1scc3c1CCCC3)C2 -13.8%
COCCn1c(=O)c(-c2cc(F)cc(F)c2)nc2cnc(Oc3ccc(OC)cc3)nc21 -11.7%
c1ccc(-c2onc(-c3ccco3)c2-c2ccc3c(c2)OCO3)cc1 -7.17%
CC1=C(C/C=C(\C)CCC[C@H](C)CCC[C@H](C)CCCC(C)C)C(=O)c2ccccc2C1=O -17%
O=C(O)c1cc2ccccc2c(Cc2c(O)c(C(=O)O)cc3ccccc23)c1O -24.9%
CCC1OC(=O)C[C@@H](O)[C@H](C)[C@@H](O[C@@H]2O[C@H](C)C[C@H](N(C)C)[C@H]2O)[C@@H](CC=O)C[C@@H](C)C(=O)/C=C/[C@]2(C)OC2C1C (some centres undefined) 6.15% and -13.3%
COc1ccc2cccc(N3CCN(CCNC(=O)c4ccc(F)cc4)CC3)c2c1 -7.81%
O=C1CCC[C@@H]2Cc3nc4ccccc4cc3[C@@H]3CCN1[C@H]23 -8.51%
Cc1ncc2c(c1CNC(=O)c1ccccc1F)CCN(C(=O)c1csc(-c3cccs3)n1)C2 0.511%
CC[N+]1(CC(=O)c2ccc(Cl)cc2)CCCCC1 -20.1%
Cc1ccc2occ(CN3CCOc4ccc(C(C)(O)COc5ccccc5)cc4C3)c(=O)c2c1 (centres undefined) -22.1%
C=C[C@@]1(C)CC(=O)[C@@]2(O)[C@@]3(C)[C@@H](O)CCC(C)(C)[C@@H]3[C@H](O)[C@H](OC(C)=O)[C@@]2(C)O1 -11.8%
COc1ccc2[nH]cc(CCNc3ccnc(-c4c(C)noc4C)n3)c2c1 0.121%
OC(CN1CCCCC1)c1ccccc1 (centres undefined) -22.8%
COC(=O)C1=C(C)NC(C)=C(C(=O)OCCSc2ccccc2)[C@@H]1C -10.9%
CCC(C)c1ccc(O[C@@H]2O[C@H](CO)[C@@H](O)[C@H](O)[C@H]2NC(C)=O)cc1 (some centres undefined) -1.57%
O=c1c(-c2ccc(F)cc2)nc2cncnc2n1-c1ccccc1 -9.95%
N[C@H](C(=O)O)[C@H]1C[C@@H]1C(=O)O -0.0093% and -5.02%
CCOC(=O)C1=C(C)NC(c2ccccc2)=C(C(=O)OCc2ccc([N+](=O)[O-])cc2)[C@@H]1C#Cc1ccccc1 -7.05%
Cc1nc2cnc(Nc3ccccc3)nc2n(C[C@H]2CCCO2)c1=O -3.96%
CC(=O)Nc1cccc(O)c1 -8.84%
Cc1cnc(C(=O)O)c[n+]1[O-] -12% and -16.7%
O=C(Nc1ccccc1)[C@@H]1CC=C[C@@H]2CCN(Cc3ccccc3)C(=O)[C@@H]21 -35.5%
COc1ccc2c(c1)C[C@]1(C)c3ccccc3C(=O)N(Cc3ccccc3)[C@H]21 -9.94%
C[C@@]12CCC[C@H]1C1CC[C@H]3C[C@H](O)CC[C@]3(C)C1CC2 (some centres undefined) -5.95%
O=c1c(O)c(-c2ccc(O)c(O)c2)oc2cc(O)cc(O)c12 -11.4% [middle of 7 runs]
CCOC(=O)C1=C(O)C(=O)N(Cc2ccccc2)C1 -15.9%
O=C1CCC[C@@H]2Cc3nc4ccc(O)cc4cc3[C@@H]3CCN1[C@H]23 -26.2%
CN=C(N)NC(=O)Nc1c(C)cccc1C -9.47%
CC(=O)c1ccc(-c2cc(F)cc3c2OC(CNC(=O)Cc2cn4ccsc4n2)C3)s1 (centres undefined) -3.23%
COc1ccc(Oc2ncc3nc(-c4ccc(Cl)cc4)c(=O)n(CCC#N)c3n2)cc1 -5.24%
CC1=CC(=O)[C@@H]2C[C@H]1C2(C)C -3.15%
O=C(c1cccc(F)c1)N1CCC2(CCCN(c3cccc(-c4ccccc4)c3)C2)CC1 3.3%
CCNc1ncc2nc(-c3cccs3)c(=O)n(-c3ccccc3)c2n1 4.31%
COc1ccc2c(=O)c(-c3ccccc3)coc2c1 -1.34%
CC(=O)NCCNc1ncnc2ccc(-c3ccccc3Cl)cc12 -8.52%
O=C(NCCc1ccccn1)c1cnn(-c2ncc3c(n2)-c2ccccc2CC3)c1C1CC1 4.5%
COC(=O)[C@@H]1[C@H]2C[C@H]3c4[nH]c5ccccc5c4CCN3C[C@H]2CC[C@@H]1O -15%
COC(=O)CC1C(C)(C)C(OC(C)=O)[C@@]2(O)C=C3C4CC(=O)OC(c5ccoc5)[C@]4(C)CCC3[C@@]1(C)C2=O (some centres undefined) -14%
O=C1[C@H]2[C@H](C=CC[C@H]2C(=O)N2CCOCC2)CCN1Cc1ccccc1 -23.9%
CN(C)c1ccc(-c2ccc3ncnc(NCc4ccccc4)c3c2)cc1 -21.7%
C[C@@H]1CCC2C(C)(C)C3CC21CC[C@@]3(C)O (some centres undefined) -4.48%
O=C(C[C@H]1C(=O)N(C2CCCCC2)C[C@@H]1Cc1ccccc1)Nc1ccccc1 -12.8%
CSc1ncccc1C(=O)NCC1Cc2cc(F)cc(-c3cncnc3)c2O1 (centres undefined) -15.6%
COc1ccc(-c2cn(Cc3ccc4c(c3)C(=O)c3ccccc3C4=O)nn2)cc1 6%
COCCn1c(=O)cnc2cnc(N3CCN(C)CC3)nc21 9.03%
COc1ccccc1CN1CCCC2(CCN(C(=O)c3cccc(F)c3)CC2)C1 -21.1%
CC(C)C[C@@H](CN=[N+]=[N-])N1CCN(CCc2ccccc2)CCC1=O 9%
COc1ccc(CN2CCOc3ccc(C(O)c4cccnc4)cc3C2)c(F)c1 (centres undefined) -2.95%
CN(C)Cc1ccccc1-c1nccc(Nc2ccc(F)cc2)n1 -2.75%
NCc1ccc(S(N)(=O)=O)cc1 -17.8% and -14.5%
O=C1/C(=C\c2cccs2)CCC/C1=C\c1cccs1 6.67%
Cc1cc[n+](CC(=O)c2ccc(F)cc2)c2ccccc12 -13.2%
COCCNc1ccnc(-c2c(C)noc2C)n1 -21.8%
O=C1OC2(c3ccccc31)c1cc(Br)c(O)c(Br)c1Oc1c2cc(Br)c(O)c1Br -13.1%
c1ccc2oc(C3=NCCN3)cc2c1 -17.5%
COC(=O)c1ccccc1-c1cc(C)cc2c1OC(CNC(=O)c1cc(C)n(C)n1)C2 (centres undefined) 4.71%
CCc1oc2ccccc2c1C(=O)c1cc(Br)c(O)c(Br)c1 -35.4%
CCCCN1CC[C@H]2C=CC[C@@H](C(=O)Nc3ccc(Cl)c(C(F)(F)F)c3)[C@H]2C1=O -10.4%
COc1cccc(Cn2c(=O)c(C)nc3cnc(N4CCOCC4)nc32)c1 1.39%
COc1cc(-c2ccc(C(F)(F)F)cn2)cc2c1OCCN(S(=O)(=O)C[C@]13CC[C@H](CC1=O)C3(C)C)C2 -5.51%
Cc1cccc(CNc2ncnc3ccc(-c4ccccc4C#N)cc23)c1 -12.3%
CC(=C(CCOC(=O)C(C)C)SSC(CCOC(=O)C(C)C)=C(C)N(C=O)Cc1cnc(C)nc1N)N(C=O)Cc1cnc(C)nc1N 14.4%
CC(C)C[C@@H](CO)N(Cc1ccccc1)S(=O)(=O)N(Cc1ccccc1)[C@H](CO)CC(C)C -10.8%
COC(=O)C(N)Cc1ccc(Cl)cc1 (centres undefined) -21.7%
C[C@@H]1[C@H](c2ccccc2)OCCS(=O)(=O)N1Cc1ccc(F)cc1 -1.91%
O=Cc1ccc(I)cc1 -16.5%
O=C(O)C(O)[C@@](O)(Cc1ccc(O)cc1)C(=O)O (some centres undefined) -7.12%
CCC1CN(CCNC(=O)c2cc(C)nn2CC)Cc2cc(OC)ccc2O1 (centres undefined) -8.87%
O=C(c1cnccn1)N1CCC2(CCCN(c3ccc(-c4ccccc4)cc3)C2)CC1 -24.9%
C=C(c1ccc(C(=O)O)cc1)c1cc2c(cc1C)C(C)(C)CCC2(C)C -7.18%
C#C[C@]1(O)CC[C@H]2[C@@H]3CCC4=C(CCC(=O)C4)[C@H]3CC[C@@]21C -7.58%
O=C(Nc1cc(C(=O)N2CCN(CCO)CC2)c2c(c1)ncn2C1CCCC1)c1ccccc1 -2.25%
COc1ccc(NC(=O)N2CCCC3(CCN(C(=O)c4cnccn4)CC3)C2)cc1 -10.2%
COc1ccc(Oc2ncc3nc(-c4cccs4)c(=O)n(Cc4cccs4)c3n2)cc1 -17.1%
CC(CN1c2ccccc2Sc2ccc(S(=O)(=O)N(C)C)cc21)N(C)C (centres undefined) -29.4%
Cc1nc(NCc2cnn(C)c2)sc1-c1ccn(-c2cccc(F)c2)n1 -14.3%
CC[N+](CC)(CC)CCOc1cccc(OCC[N+](CC)(CC)CC)c1OCC[N+](CC)(CC)CC -2.24% and -39.1%
